Reference: publication PMC12796746
Results are given in words; binding and its absence hold for the method and conditions named.

Amino acid sequences for entries named in this document (tags omitted).
UniProt O75822: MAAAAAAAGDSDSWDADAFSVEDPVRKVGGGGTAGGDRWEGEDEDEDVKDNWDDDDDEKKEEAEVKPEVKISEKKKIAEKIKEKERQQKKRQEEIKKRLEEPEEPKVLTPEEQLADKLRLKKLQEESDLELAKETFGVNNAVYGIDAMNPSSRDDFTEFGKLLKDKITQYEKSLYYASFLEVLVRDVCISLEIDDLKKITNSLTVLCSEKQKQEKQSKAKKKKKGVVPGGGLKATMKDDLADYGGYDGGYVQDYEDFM
UniProt Q8N6T3: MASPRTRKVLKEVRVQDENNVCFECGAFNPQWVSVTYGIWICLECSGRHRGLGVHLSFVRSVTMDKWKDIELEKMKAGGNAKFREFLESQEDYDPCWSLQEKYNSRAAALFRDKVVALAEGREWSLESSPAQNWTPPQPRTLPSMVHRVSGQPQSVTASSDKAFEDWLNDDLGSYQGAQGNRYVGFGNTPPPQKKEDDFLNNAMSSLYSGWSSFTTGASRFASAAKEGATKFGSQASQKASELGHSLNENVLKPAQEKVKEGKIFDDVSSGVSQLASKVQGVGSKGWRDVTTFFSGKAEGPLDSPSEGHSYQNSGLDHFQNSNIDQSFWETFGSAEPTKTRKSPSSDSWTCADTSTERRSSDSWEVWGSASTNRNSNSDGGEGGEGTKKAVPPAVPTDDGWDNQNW
UniProt Q9BUT1: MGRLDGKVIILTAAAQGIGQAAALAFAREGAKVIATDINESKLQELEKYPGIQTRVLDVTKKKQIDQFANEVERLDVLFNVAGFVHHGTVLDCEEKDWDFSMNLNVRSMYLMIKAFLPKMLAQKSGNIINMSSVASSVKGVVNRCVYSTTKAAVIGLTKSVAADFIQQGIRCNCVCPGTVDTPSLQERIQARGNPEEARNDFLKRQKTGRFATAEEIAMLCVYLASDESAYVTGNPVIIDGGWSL

How the values were obtained:
Assay in all cases: peptide or protein array; HuProt Human Proteome Microarray v2.0, full-length human proteins spotted in duplicate; V5-tagged TRPV4 protein in solution at 1 μM, 1 h at 4 °C, 150 mM NaCl, 2.7 mM KCl, 25 mM Trizma base, 0.05% Tween-20, pH 7.4; detected with Alexa Fluor 647 anti-V5; hit: z-score >= 2 (N terminus: both of 2 slides; ARD constructs: at least 2 of 3 slides); both purified
[1] = target: Eukaryotic translation initiation factor 3 subunit J (human) (UniProt O75822)
[2] = target: T1, Kin of IRRE-like protein 3 (human) (UniProt Q8IZU9)
T1 sequence: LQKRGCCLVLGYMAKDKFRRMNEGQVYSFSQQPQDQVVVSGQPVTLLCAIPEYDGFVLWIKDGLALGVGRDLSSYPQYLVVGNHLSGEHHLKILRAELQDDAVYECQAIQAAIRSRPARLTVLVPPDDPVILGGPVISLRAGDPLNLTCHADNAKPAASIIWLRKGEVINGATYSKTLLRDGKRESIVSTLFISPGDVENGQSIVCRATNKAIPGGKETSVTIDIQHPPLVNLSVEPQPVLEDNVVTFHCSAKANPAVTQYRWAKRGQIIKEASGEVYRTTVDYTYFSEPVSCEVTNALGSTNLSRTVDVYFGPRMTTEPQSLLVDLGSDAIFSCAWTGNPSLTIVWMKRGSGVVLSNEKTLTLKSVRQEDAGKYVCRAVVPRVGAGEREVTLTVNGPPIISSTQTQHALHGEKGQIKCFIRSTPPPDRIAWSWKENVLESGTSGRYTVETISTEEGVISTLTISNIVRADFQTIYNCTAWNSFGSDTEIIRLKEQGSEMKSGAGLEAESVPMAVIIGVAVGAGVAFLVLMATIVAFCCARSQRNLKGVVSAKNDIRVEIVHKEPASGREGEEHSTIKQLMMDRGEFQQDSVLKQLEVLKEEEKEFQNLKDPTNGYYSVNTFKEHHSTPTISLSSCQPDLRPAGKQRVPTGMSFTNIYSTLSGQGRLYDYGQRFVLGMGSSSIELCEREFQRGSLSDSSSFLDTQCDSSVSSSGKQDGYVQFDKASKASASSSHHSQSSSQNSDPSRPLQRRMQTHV

[3] = target: T2, Centrin-3 (human) (UniProt O15182)
T2 sequence: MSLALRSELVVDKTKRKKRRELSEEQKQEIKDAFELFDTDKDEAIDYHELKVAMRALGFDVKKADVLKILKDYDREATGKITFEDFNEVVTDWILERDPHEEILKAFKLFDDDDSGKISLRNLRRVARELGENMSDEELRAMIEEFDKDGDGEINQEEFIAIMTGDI

[4] = target: T3, Ermin (human) (UniProt Q8TAM6)
T3 sequence: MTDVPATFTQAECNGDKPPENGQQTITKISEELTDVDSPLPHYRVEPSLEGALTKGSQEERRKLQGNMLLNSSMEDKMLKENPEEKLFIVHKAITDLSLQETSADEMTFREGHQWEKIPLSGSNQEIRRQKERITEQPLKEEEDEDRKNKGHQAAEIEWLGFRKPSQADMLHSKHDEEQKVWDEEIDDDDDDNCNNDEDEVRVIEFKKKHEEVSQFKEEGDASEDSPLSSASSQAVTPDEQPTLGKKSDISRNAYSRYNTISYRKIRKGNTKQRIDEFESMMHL

[5] = target: ADP-ribosylation factor GTPase-activating protein 1 (human) (UniProt Q8N6T3)
[6] = target: 3-hydroxybutyrate dehydrogenase type 2 (human) (UniProt Q9BUT1)
[7] = target: T4, Huntingtin-interacting protein K (human) (UniProt Q9NX55)
T4 sequence: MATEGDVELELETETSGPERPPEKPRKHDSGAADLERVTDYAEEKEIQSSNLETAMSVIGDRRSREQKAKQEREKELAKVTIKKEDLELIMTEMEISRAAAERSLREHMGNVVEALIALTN

binding [1]	binding [2]	binding [3]	binding [4]	binding [5]	binding [6]	binding [7]	Substance
no binding (tested: 1 μM)	no binding (tested: 1 μM)	no binding (tested: 1 μM)	no binding (tested: 1 μM)	no binding (tested: 1 μM)	no binding (tested: 1 μM)	no binding (tested: 1 μM)	TRPV4^R269C-ARD (from UniProt Q9HBA0 149-397) (domain or fragment)
no binding (tested: 1 μM)	no binding (tested: 1 μM)	no binding (tested: 1 μM)	no binding (tested: 1 μM)	no binding (tested: 1 μM)	no binding (tested: 1 μM)	no binding (tested: 1 μM)	TRPV4^R315W-ARD (from UniProt Q9HBA0 149-397) (domain or fragment)
